The other results are listed elsewhere or left out.
Each sequence was assayed on PF3D7_0420300 AP2 domain 1 (GST-tagged) (assay: gcPBM binding intensity (ln(normalized median fluorescence intensity)); higher = stronger DNA binding).
Summary of the method: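 Plasmodium falciparum DNA-binding domains carrying a GST tag were expressed in E. coli and applied for 1 h, at about 25 μg on average, to an Agilent 4 × 180k array. The array held primer-extended double-stranded 36-bp intergenic genomic probes together with negative controls, and binding took place in 1× PBS with 1% milk, 0.2 mg/ml BSA, 0.5% salmon testes DNA and 0.03% Triton X-100. An Alexa488 anti-GST antibody detected bound protein, and the array was scanned at 488 nm. Binding intensity is taken as the highest Masliner-normalised natural-log median intensity across replicate spots of either probe orientation.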

Sequence	gcPBM binding intensity (ln)
ATAATGAAGACTTTTTTACACACTTCATATATTATA [CACACA_site8630]	9.48
TGATATTTTTCCATAGTGCAAAATATAGTAATGTAT	9.11
TTACATACATACAAGTGTACGCATATATTAATATTA [XGTACX_site4006]	9.23
ATATGTACAAGTTATACACACATGTACAGTTATATA [CACACA_site6706]	9.48
TTTAACATTTCAGATGTGCACATTTTCCGAACCAGT	9.33
AGAACGACTAAGCAGTGTACATTTTGTATATACAAT [XGTACX_site2831]	9.25
TTCTATATATTATATGCATGTAAAACATATTAAAAT [TGCATGCA_site662]	9.05
TTTTTATGAAAATAAACACACGATTTATTATATATA [CACACA_site1311]	9.02
TGCATGTAATTTTTGTGTCCACATAAAATATTTAAT [XGTACX_site5652]	9.04
TTTTTCAATTGTAGTGGTACAGATATAATTATCTCT [XGTACX_site5500]	9.08
ATGTACTATGATAATGCATGCAATAATACATTTTTA [TGCATGCA_site318]	9.18
TAATATATATATAATACACACTATTTTAATCACATA [CACACA_site4849]	9.35
TTATTATGTATATATGCACACAATACCCAAAACAAC [CACACA_site80]	9.64
GAAGATTTATCTTGCACACGCAAAAAAAAAAAAAAA [CACACA_site154]	8.81
TTTATTGCTCTATATGCACACCTTAATTCTTCATTT [CACACA_site8682]	9.56
TACGTAAATTCTAATACACACTATAGGATATTCTGC [CACACA_site7248]	9.25
AAAAATAATCATAGTAGTACAAAAAAAAAAAAAAAA [XGTACX_site3736]	8.81
GAAAATATTTCTATCTGTACTTATTTATATATATAT [XGTACX_site7317]	9.34
TTGTCACTAATAGATGCATGCAATCATTCCATTTTT [TGCATGCA_site938]	9.23
TTATGTCGTAAATACACACATACATATACATACACA [CACACA_site1374]	9.57
TTGTAATGATATATTTGTACTTAATATAATTGTATA [XGTACX_site2748]	9.09
AATAAATTGAAACACACACACACATATATATATATA [CACACA_site848]	10
TAACAAAACATAGATTGTACATATTATAAATGTATA [XGTACX_site1543]	9.26

Sequence	gcPBM binding intensity (ln)
GTTACATACCTATACACACACATATATAAATAAATA [CACACA_site6549]	9.89
ATATAAAAATACAGGTGTACATTTTTTCATATTTAT [XGTACX_site6959]	9.31
TATTCTTATCTTACCACACACAATGTACGAAAAGAT [CACACA_site6296]	9.44
CAAAATATACACACGTGTACACAAATATTTACAAAA [XGTACX_site2257]	9.47
CAATATTATATTACTTGTACACATATGTAGTTTCGA [XGTACX_site8945]	9.18
TTTCCCATAGGAAAAACACACATATATTATATATAA [CACACA_site1981]	9.12
TTTTTTGTTAAACCGGTGCATATAAATATATATATA [GTGCAC_site9989]	9.12
TAATTATTACACGGTATTATATATAATATGTTAAAA [GTGCAC_negctrl_site134]	9.02
ATCATTTTTTATGCGTGTACATAAATTTATTAGGTT [XGTACX_site2786]	9.53
CACAAAAAAGTTCATACACACAACATATTTATATAT [CACACA_site2887]	9.75
TTTTTTTTTTTTCTGTGTACATATATAATATATATA [XGTACX_site1592]	9.35
ATATCTATATTTTAAAGTACGTAGTAAAAAGAAAAA [XGTACX_site4323]	9.18
TTTTATGAAAAGATGAGTACACAATACTTTTTAATT [XGTACX_site8253]	8.99
AAAAAAAAAAAAAGATGTACATATATTTTTATTATA [XGTACX_site654]	9.02
AAGGATATAAAAAAACGTACGTACGATAATATAATT [XGTACX_site1292]	9.34
AACCATTCTTCTAATTGTACATTGAAAAATCATGAT [XGTACX_site3854]	9.08
AGTATTTTAATTTCAGTGCATTTTATTCTATAATTA	9.43
AAAAAAAAAAAAAATGCATGTGCGTAAATAATAATA [TGCATGCA_site793]	9.38
AAGTTTTCTTACAGATGTACTTTTTAAAAATAAACT [XGTACX_site6632]	9.11
TTTAGGAAAGGCGGCACACATTTATATATTTATTTA [CACACA_site5931]	9.22
ATATATATCTATATTTGTACATATTACATTCAAGTT [XGTACX_site1749]	9.27
TTTTTTTTTTCTTGTTGTACTTTTAATAATTCATAT [XGTACX_site4704]	9.44
GAAATTTTTAAAAAGGTGCTTTTAACAAAAATTATT [GTGCAC_site9687]	8.91

Sequence	gcPBM binding intensity (ln)
TTATTAAAAAAAATATGTACTCACAATATAATATAT [XGTACX_site3738]	9.14
TATATATATATAACATGTACATAAAATACATTTATA [XGTACX_site7370]	9.06
ACCATCCTTAATACTTATTTTTTCACAATTAAGTAA [GTGCAC_negctrl_site269]	9.3
TTAGCAACTATTACTACACACATTTGTATATAATTT [CACACA_site1591]	9.64
TTTATAATATACATAACACACAATTATTATTTCTTA [CACACA_site3624]	9.26
TTATAACAAATATAGAGTACTAAAATTTTACGTTAT [XGTACX_site1410]	9.21
TTTTTTTCCTTATCTATATATAATCAAATTTTCTAC [CACACA_negctrl_site867]	9.05
AACTTTTAGAAGAACACACACATATAGATTATGACC [CACACA_site6256]	9.86
TCGAACATTAACATAACACACATATATATATATATA [CACACA_site2900]	9.42
AAGGTTATTTATATATGTACTTAATATATATATATG [XGTACX_site886]	9.31
TTTTATCGATATATCTGTACATATTACTTATAATAA [XGTACX_site57]	9.29
TGCTATAATTTATATACACACAAATATATACTCATA [CACACA_site6111]	9.47
TATAACTATTTATAATGTACTCATGTATAATTATAT [XGTACX_site7913]	9.1
TTAATTTATTTATGCACACATATATAATTACACATA [CACACA_site4544]	9.36
TTTATATATTATATAAATATTATTATACTTTAAATA [TGCATGCA_negctrl_site236]	8.73
ATGCTTTTGTCATGTGCACACACGTATATATTATAT [CACACA_site4163]	9.89
ACATGTATTTATAAGAGTACATATGTGTGCATGTTT [XGTACX_site7946]	9.49
AATAAATAAATATATACACACATATCTGTCTACATA [CACACA_site5708]	9.54
ACAAGATCTAGATACACACACATATCTCTCAATCTA [CACACA_site6453]	9.7
GTAAAAAAATAGCACACACACAAAAACACGCACAAA [CACACA_site6723]	10.2
GGGACAGGACGAAAAAATAAATAAATAAATAAAAAA [CACACA_negctrl_site155]	8.89
AATAATTGAAAAACACAAAAATGATTTTCCATAAAT [CACACA_negctrl_site1555]	9.09
ATATATTATATAATATGTACATAATAAAATTTAAAT [XGTACX_site1900]	9.26

Sequence	gcPBM binding intensity (ln)
TTTTTATTTATATATATATATATATATTATATATAA [CACACA_negctrl_site1654]	8.97
CTTGTCATTGGGCACACACACATGTATAGGTTATTA [CACACA_site3058]	9.7
GAGTAAACATATATATGTACATAAAGTTAACATTGC [XGTACX_site2225]	9.45
ATTTTTTTTCATATAACACACACACTAATATAATGT [CACACA_site9226]	9.88
TGAACACCCACAAATACACACAAAAAAAATAAATAA [CACACA_site248]	9.68
CTTATAAAAAAAAAAACATGCAACAGTAAAGAACAA [TGCATGCA_site892]	9.84
AAAAAAATAAGTATTGAACAATTAAGGAAAAACATG [GTGCAC_negctrl_site464]	9.59
AACATACATAAACACACACACACACCCACAGAGACA [CACACA_site4430]	10.4
GGTAATTTTTTTTAAATACACACTGAAATGTGAATT [CACACA_site564]	9.1
CATACAGATATATATACACACATACAGATAAATACA [CACACA_site4592]	9.83
AATTGAATTTTAAAAGAAAAAAAAAAAAAAAAATAA [XGTACX_negctrl_site195]	8.76
TGGAGGTCAGTTCACAGTACCCAGAAACTCTACGGA [XGTACX_site4927]	8.97
TTTTTTCAATTTTTTTTAAATAAACCACAAAAAAAA [CACACA_negctrl_site1701]	8.72
TAATGTAAAATTTAGAGTACATAAAAAATTGGATGA [XGTACX_site7225]	9.24
AAATAAAAAAAGAAACGTACATATATTGGTTTCGTC [XGTACX_site3510]	9.43
AAACTATAATATATTACACACATATATTTTATAAGT [CACACA_site6460]	9.55
AAATTATATCAATGTTGTACATATTATTTTTTTCTC [XGTACX_site5948]	9.36
AAAAAAAAAAATATCACACACACATAAATATAAACC [CACACA_site2278]	10.2
TAGTATAAAATTATGTGTACACAAATATAACTTTTC [XGTACX_site5971]	9.22
AAAAAAAAAAAAAGGTGTACAAGTATAATTACATAA [XGTACX_site534]	9.37

— the supplement of paper PMC11417369
